From PubChem BioAssay AID1768 (National Center for Advancing Translational Sciences (NCATS), 2009)
Where “and” joins values, the source holds several entries; their conditions need not be identical. Equal entries are not always repeated. About 620 (0.23%) of roughly 270,000 compounds were called active. The shares of active, inactive and inconclusive entries below differ from those in the screen. The call rests on the fitted dose curve; in most records, active means well fitted inhibition curve with a large enough effect in the polarisation, with a control signal flat (not every such curve was filed as active); inconclusive means small, poorly fitted or top-dose-only effect, or effect the other way, or a change in a side signal; inactive means no such curve, though single readings can be large or run the other way; the % refers to the polarisation. Potencies of inconclusive entries are doubtful fits and often do not repeat. A note “side channel” means that the fit belongs to a control or component signal, not to the main read-out.

Target: Menin (Homo sapiens) (UniProt O00255)
Test: qHTS Assay for Inhibitors Targeting the Menin-MLL Interaction in MLL Related Leukemias: Competition With Texas Red Labeled MLL-derived Mutant Peptide
Details: fluorescence polarization; series mostly up to 61.6 µM
Potency means the concentration at half of the fitted maximal effect; tags describe the fitted curve by direction and shape or compound fluorescence and quenching.

Sequence of UniProt O00255 (O00255 whole entry, looked up): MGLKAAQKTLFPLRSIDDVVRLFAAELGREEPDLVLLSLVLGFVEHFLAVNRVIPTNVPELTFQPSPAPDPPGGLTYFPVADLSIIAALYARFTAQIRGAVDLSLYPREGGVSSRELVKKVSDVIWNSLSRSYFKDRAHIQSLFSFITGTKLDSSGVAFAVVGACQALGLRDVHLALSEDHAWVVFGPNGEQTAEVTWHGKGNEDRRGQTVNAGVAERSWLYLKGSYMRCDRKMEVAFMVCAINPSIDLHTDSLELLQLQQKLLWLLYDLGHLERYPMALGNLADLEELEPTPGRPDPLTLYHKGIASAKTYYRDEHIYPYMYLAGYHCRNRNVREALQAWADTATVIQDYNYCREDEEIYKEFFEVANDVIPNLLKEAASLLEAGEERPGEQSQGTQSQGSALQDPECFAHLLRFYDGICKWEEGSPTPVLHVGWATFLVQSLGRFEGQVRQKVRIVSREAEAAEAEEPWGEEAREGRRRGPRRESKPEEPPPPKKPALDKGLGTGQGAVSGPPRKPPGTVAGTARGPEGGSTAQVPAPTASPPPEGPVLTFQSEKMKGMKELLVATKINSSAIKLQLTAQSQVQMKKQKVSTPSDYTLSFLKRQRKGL

Structure (SMILES)	Potency
O=Nc1c(-c2c(O)[nH]c3cc(Br)ccc23)[nH]c2ccccc12	inconclusive: 3.16 µM [quencher, side channel, full curve] and inconclusive: 3.55 µM [quencher, side channel, full curve, poor fit]
Cc1ccc(N(C(=O)CS(=O)CC(=O)Nc2ccc(F)cc2)C(C)C(=O)NC(C)(C)C)cc1 (stereo unspecified)	inconclusive: 3.16 µM [inhibitor, partial curve]
COc1ccc(NC(=O)c2sc3nc(C)cc(C)c3c2N)cc1	inactive
CCC(=O)Nc1ccccc1C(=O)OCC(=O)c1cccc2ccccc12	inactive
COCCn1c(Sc2ccc(C)cc2)nc2c1c(=O)[nH]c(=O)n2C	inconclusive: 4.47 µM [inhibitor, partial curve]
O=C(O)c1ccccc1OS(=O)(=O)O	inactive
CC(=O)Nc1nc(CC(C)C)cc(-c2ccco2)c1C#N	inactive
CCOC(=O)C1=C(c2ccccc2)NC(SCC(=O)Nc2ccc(C)cc2)=C(C#N)C1c1ccco1 (stereo unspecified)	inconclusive: 39.8 µM [inhibitor, single point]
CN(C)S(=O)(=O)Oc1cccc(C(=O)Nc2ccc([N+](=O)[O-])cc2)c1	inconclusive: 35.5 µM [quencher, side channel, partial curve, poor fit]
CCC(C(=O)Nc1ccc(OC)c(Cl)c1)c1ccccc1 (stereo unspecified)	inconclusive: 39.8 µM [quencher, side channel, single point]
Cc1ccc(-c2n[nH]c(=S)n2/N=C/C=C/c2ccccc2[N+](=O)[O-])cc1	inconclusive: 28.2 µM [quencher, side channel, single point]
CSc1cccc(NC(=O)CN(c2ccccc2)S(=O)(=O)N(C)C)c1	inconclusive: 35.5 µM [quencher, side channel, single point]
Cc1cccc(NC(=O)N(Cc2cc3cc(C)cc(C)c3[nH]c2=O)CC2COCCO2)c1 (stereo unspecified)	inconclusive: 17.8 µM [fluorescent, side channel, single point]
COc1cccc(CNc2ccc3c(c2)nc(C)n3C)c1OC	inactive
CCn1c(C)c(C)c2cc(C(=O)NCCCN3CCCC3)ccc21	inconclusive: 25.1 µM [fluorescent, side channel, single point]
O=c1c2ccccc2nc2n1CC/C2=C/N1CCN(c2cccc(C(F)(F)F)c2)CC1	inconclusive: 28.2 µM [quencher, side channel, single point]
O=C(CSCc1ccco1)c1ccc(Cl)s1	inconclusive: 17.8 µM [quencher, side channel, partial curve]
CCc1cc(N2CCOCC2)cc2c1[nH]c1ccccc12	inconclusive: 20 µM [quencher, side channel, single point]
COc1ccc(CCCc2n[nH]c(=S)o2)cc1C	inconclusive: 6.31 µM [inhibitor, single point]
COc1cc(NC(=O)CSc2nccc(C)n2)c(C)cc1[N+](=O)[O-]	inconclusive: 22.4 µM [quencher, side channel, single point]
N#Cc1cccc(-c2ccc3ncnc(NCc4cccnc4)c3c2)c1	inconclusive: 39.8 µM [inhibitor, single point]

Structure (SMILES)	Potency
CCCOc1ccc(C(=O)N/N=C/c2c[nH]c3ccc(Br)cc23)cc1	inconclusive: 7.08 µM [quencher, side channel, partial curve]
Cc1cc(C)c(S(=O)(=O)N2CCN(C(=O)CCn3nc(C)c(C)c3C)CC2)c(C)c1	inconclusive: 10 µM [inhibitor, partial curve]
COC(=O)Cc1c(O)ccn(CCc2ccc(S(N)(=O)=O)cc2)c1=O	inconclusive: 2.82 µM [inhibitor, full curve]
COC(=O)C1=C[C@@H](C(=O)OC)C2C3=C(C(=O)[C@]2(C)NC(=O)c2ccccc2)[C@H](C)n2c(=O)n(C)c(=O)n2[C@@H]3C1 (stereo partly specified)	inactive
O=C(CSc1n[nH]c(-c2ccco2)n1)N1c2ccccc2Sc2ccccc21	inconclusive: 25.1 µM [quencher, side channel, single point]
CSC(=CC(=O)c1ccccc1)SC	inconclusive: 7.08 µM [inhibitor, single point]
Cc1cc(NCCC(C)C)n2nc(C)c(-c3ccccc3)c2n1	inactive
COc1cnc(-c2ccccn2)nc1Sc1ccc(Cl)cc1	inactive
O=C(NCC(c1cccs1)N1CCOCC1)c1ccco1 (stereo unspecified)	inconclusive: 3.16 µM [inhibitor, single point]
Cc1ccc(N=Cc2c(O)[nH]c3ccccc23)c([N+](=O)[O-])c1	inconclusive: 11.2 µM [quencher, side channel, partial curve]
N#Cc1ccc2c(c1)C[C@]1(CCCCN3C(=O)c4ccccc4C3=O)Oc3c(c(=O)oc4ccccc34)C2O1	inconclusive: 4.47 µM [quencher, side channel, partial curve]
O=C(c1cccc(C(F)(F)F)c1)C1CCCN(Cc2cccc(OCCO)c2)C1 (stereo unspecified)	inconclusive: 2.51 µM [inhibitor, full curve, poor fit]
CN(C)c1ccc(C(CNC(=O)c2ccc(F)cc2)c2c[nH]c3ccccc23)cc1 (stereo unspecified)	inconclusive: 31.6 µM [quencher, side channel, single point]
O=C(CSc1cccc[n+]1[O-])c1ccccc1Br	inactive
CCOc1cc(/C=C2\N=C(SC)SC2=O)cc([N+](=O)[O-])c1OC(C)=O	inconclusive: 22.4 µM [quencher, side channel, partial curve]
O=[N+]([O-])c1cc(Cl)ccc1NCCNc1ncc(C(F)(F)F)cc1Cl	inconclusive: 12.6 µM [quencher, side channel, partial curve]
COc1cc(/C=C/C(=O)Nc2ccc(C(C)=O)cc2)cc(OC)c1OC	inconclusive: 17.8 µM [quencher, side channel, single point]
Cc1ccccc1NC(=O)c1ccc(N/N=C/c2ccccc2O)c([N+](=O)[O-])c1	inconclusive: 22.4 µM [quencher, partial curve]
O=C(Nc1ccc(F)cc1F)c1ccc2nc(N3CCOCC3)sc2c1	inactive
Oc1ccccc1N1CCN(c2ncnc3scc(-c4ccccc4)c23)CC1	inconclusive: 35.5 µM [inhibitor, partial curve]
CCOC(=O)c1cc2sc(C)cc2n1CC(=O)Nc1ccc2c(c1)OCCO2	inconclusive: 39.8 µM [inhibitor, single point]

Structure (SMILES)	Potency
Cc1ccccc1NC(=O)c1cccc(N2C(=O)C3CCCCC3C2=O)c1 (stereo unspecified)	inconclusive: 3.16 µM [inhibitor, full curve]
Cc1cc(C)c(C)c(OCCOCCNCc2ccccc2)c1	inconclusive: 11.2 µM [fluorescent, side channel, partial curve]
CC(C)(C)c1ccc(C(=O)N/N=C2\C3CN4CCN(C3)CC2(c2ccccc2)C4)cc1	inactive
CNC(=S)NN(c1ccccc1)c1ccccc1	inconclusive: 8.91 µM [inhibitor, full curve]
O=C(CSc1ccccc1)Nc1nnc(COc2ccc(Cl)cc2)s1	inconclusive: 28.2 µM [quencher, side channel, partial curve]
COc1cccc(NC(=O)c2nn(C)c(C(=O)Nc3cccc(OC)c3)c2[N+](=O)[O-])c1	inconclusive: 28.2 µM [quencher, side channel, single point]
COc1ccc(-n2nnnc2SCC(=O)c2ccc(O)c(O)c2)cc1	inconclusive: 31.6 µM [quencher, side channel, single point]
O=C(NCCCO)c1cc2c([nH]c3ccccc32)c(-c2ccc(F)cc2)n1	inactive
O=C(O)CN1C(=O)/C(=C\c2cccc(OCc3ccc(Cl)cc3)c2)SC1=S	inconclusive: 20 µM [quencher, side channel, partial curve]
CCC1CCCCN1CCCNC(=O)c1cc2c(Cl)nc3ccccc3c2s1 (stereo unspecified)	inconclusive: 14.1 µM [inhibitor, partial curve]
CCOc1ccccc1Nc1cc2n(c(=O)n1)CCc1cc(OC)c(OC)cc1-2	inconclusive: 39.8 µM [inhibitor, single point]
Cc1c(Cl)c([N+](=O)[O-])nn1Cc1ccc(C(=O)N/N=C\c2cccc(Br)c2)o1	inconclusive: 7.08 µM [quencher, side channel, partial curve]
Cc1cccc(C=Nc2ccccc2C(N)=O)c1	inactive
CCOC(=O)c1c(CN(CC)CC)n(-c2ccccc2)c2ccc(O)cc12	inconclusive: 39.8 µM [inhibitor, single point]
COc1nnc(-c2ccc(N3CCOCC3)c(NC(=O)c3ccc(C)cc3)c2)c2ccccc12	inconclusive: 3.55 µM [inhibitor, partial curve]
CCCCOc1ccc(C(=O)CCN2CCOCC2)cc1	inactive
N#CC1=C(SCC(N)=O)NC2=C(C(=O)c3ccccc32)C1c1ccc(Cl)cc1 (stereo unspecified)	inconclusive: 4.47 µM [quencher, side channel, full curve]
CN(CC(=O)NCCCc1ccccc1)Cc1ccc(Br)cc1	inconclusive: 31.6 µM [fluorescent, side channel, partial curve]
CC(=O)Nc1ccc(S(=O)(=O)Nc2ccc(Nc3ccccc3)cc2)cc1	inconclusive: 17.8 µM [quencher, side channel, partial curve]
